{"source": "the supplement of paper PMC10338343", "note": "± gives the standard deviation. The entries are a selection whose mix differs from that of the whole data set.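 Further: 1 nM active piRISC with 0.1 nM target library at 33 °C single turnover.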"}
{"system": "MIWI (PIWIL1) piRISC loaded with L1MC piRNA (30 nt)", "test": "pre-steady-state target cleavage rate (min^-1); MIWI and MILI are mouse PIWI proteins and EfPiwi is from a freshwater sponge; tags in brackets are library labels; higher = faster piRNA-guided slicing of the target", "conditions": "guide: L1MC piRNA 5'p-UAACUAAAUACUAUGCAAGCUGUAGGUCCU; auxiliary factor: 500 nM mouse GTSF1", "method_in_brief": "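Reactions were run for 0–8 or 0–960 min at 33 °C in HEPES–potassium acetate buffer, combining 1 nM active affinity-purified piRISC with one synthetic guide, […] transcribed, DNA-blocked target RNA library and, in some cases, 500 nM GTSF1 partner protein. Sequencing of uncleaved targets followed, with normalisation to depth and to weakly complementary targets. Three trials were pooled, k3 was capped at 0.0001 min^-1, and the pre-steady-state cleavage rate was taken from a burst-and-steady-state fit.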"}
{"sequence": "UCCUGGAUGUCCUUAGCAUAGUAUUUAGUUA", "pre-steady-state target cleavage rate": "0.0262 ± 0.009"}
{"sequence": "UCCUGGAUGUCCUUGCAUAGUAUUUAGUCUA", "pre-steady-state target cleavage rate": "0.0125 ± 0.0042"}
{"sequence": "UCCUGGAUGUCCUAGCAUAGUAUUAAGUUA", "pre-steady-state target cleavage rate": "0.00457 ± 0.0044"}
{"sequence": "UCCUGGAUGUCGUUGCAUAGUCUUUAGUUA", "pre-steady-state target cleavage rate": "0.00588 ± 0.0031"}
{"sequence": "UGGACCUACACGUUGCAUAGUAUUUAGAAA", "pre-steady-state target cleavage rate": "0.193 ± 0.018"}
{"sequence": "UCGACCUACAGCUUGCAUAGUAAUUAGAAA", "pre-steady-state target cleavage rate": "0.355 ± 0.046"}
{"sequence": "UCCUCCUAGAGCUUCCAUAGUAUUUAGUUA", "pre-steady-state target cleavage rate": "0.139 ± 0.04"}
{"sequence": "UGGACCUAGUCCUUGCAUAGUAUUUUCAAA", "pre-steady-state target cleavage rate": "0.00906 ± 0.0037"}
{"sequence": "UCCACCUACAGCUUGCAUAGUUAUUAGAAA", "pre-steady-state target cleavage rate": "0.0769 ± 0.022"}
{"sequence": "UCCUGGAACAGCUUGCAUAGUAAAUAGUAA", "pre-steady-state target cleavage rate": "0.28 ± 0.057"}
{"sequence": "UCCUGGAACAGCUUGCAUAGUAAAUAGAAA", "pre-steady-state target cleavage rate": "0.0609 ± 0.016"}
{"sequence": "UCCACCUACAGCUUGCAUAGUUUUUAGAAA", "pre-steady-state target cleavage rate": "0.163 ± 0.033"}
{"sequence": "UCCUGGAAGUCCUUGCAUAGUAUUUACAAA", "pre-steady-state target cleavage rate": "0.0113 ± 0.0052"}
{"sequence": "UCCUGGAUGAGCUUCCUUAGUAUUUAGUUA", "pre-steady-state target cleavage rate": "0.0165 ± 0.0046"}
{"sequence": "UCCUGCUACAGCUUGCAUUGUAUUUACAAA", "pre-steady-state target cleavage rate": "0.149 ± 0.034"}
{"sequence": "UCCUGCUACAGCUUGCAUAGUAUAAUGAAA", "pre-steady-state target cleavage rate": "0.331 ± 0.071"}
{"sequence": "UGGACCUACAGCUUGCAUAGUAAAUAGAAA", "pre-steady-state target cleavage rate": "0.16 ± 0.04"}
{"sequence": "UCCACCUAGUCCUUGCAUAGUAUUUACAAA", "pre-steady-state target cleavage rate": "0.127 ± 0.03"}
{"sequence": "UCCACCUACAGCUUGCAUACUAUUUUCAAA", "pre-steady-state target cleavage rate": "0.178 ± 0.034"}
{"sequence": "UCCUCCUACAGCUUGCAUAGUAUUAACAAA", "pre-steady-state target cleavage rate": "0.396 ± 0.056"}
{"sequence": "UCCUGCUAGUCCUUGCAUAGUAUUUACAAA", "pre-steady-state target cleavage rate": "0.006 ± 0.0042"}
{"sequence": "UCCUCCUACAGCUUGGUUAGUAUUUUCAAA", "pre-steady-state target cleavage rate": "0.0342 ± 0.014"}
{"sequence": "UCCUGGUUCAGCUUCCAUAGUAUUUAGUUA", "pre-steady-state target cleavage rate": "0.0207 ± 0.0091"}
{"sequence": "UCGACCUACAGCAAGCAUAGUAUUUAGAAA", "pre-steady-state target cleavage rate": "0.349 ± 0.041"}
{"sequence": "UCCUGGAUGUCGUUGCAUAGUAUUUAGUAA", "pre-steady-state target cleavage rate": "0.00556 ± 0.0034"}
{"sequence": "UCCUGGAUCAGCUUGCAUAGUAUUAUCUAA", "pre-steady-state target cleavage rate": "0.188 ± 0.034"}
{"sequence": "AGGACCUACAGCUACCAUAGUAUUUAGUAA", "pre-steady-state target cleavage rate": "0.45 ± 0.053"}
{"sequence": "UCCACCUACAGCUUGCAUAGCUAUUUAGUUA", "pre-steady-state target cleavage rate": "0.0166 ± 0.0079"}
{"sequence": "UCCUGGAUCAGCUACCAUAGUAUUUAGUAA", "pre-steady-state target cleavage rate": "0.00688 ± 0.0035"}
{"sequence": "UCCUGGUACAGCUAGCAUAGUAUUUAGAAA", "pre-steady-state target cleavage rate": "0.293 ± 0.051"}
{"sequence": "UCCUGGAACAGCUUGCAUAGUAAUUUCAAA", "pre-steady-state target cleavage rate": "0.029 ± 0.012"}
{"sequence": "UCCUGGAUGUCGAACGUUAGUAUUUACAUA", "pre-steady-state target cleavage rate": "< 0.0001"}
{"sequence": "UCCUGGAACAGCUUGCAUAGAAUUUUCAAA", "pre-steady-state target cleavage rate": "0.0617 ± 0.021"}
{"sequence": "UCCUGCUACAGCUUGCAUAGUAAUUAGAAA", "pre-steady-state target cleavage rate": "0.212 ± 0.036"}
{"sequence": "UCGACCUACAGCUUGGUUAGUAUUUUCAAA", "pre-steady-state target cleavage rate": "0.0241 ± 0.0089"}
{"sequence": "UCCUGGAUCAGCUUGCAUAGUAUAUAGAAA", "pre-steady-state target cleavage rate": "0.245 ± 0.049"}
{"sequence": "UGGACCUACAGGAUGCAUAGUAUUUUCAAA", "pre-steady-state target cleavage rate": "0.136 ± 0.028"}
{"sequence": "UCCUGCUACAGCUUGCAUAGUAUAAAGAAA", "pre-steady-state target cleavage rate": "0.23 ± 0.044"}
{"sequence": "UCCUGGAUGUCGAAGCAUAGUAUUUAGUUG [g2:g16:cont:t1G]", "pre-steady-state target cleavage rate": "0.00362 ± 0.0031"}
